Reference: patent publication US20220193134A1, “CO-USE OF LENALIDOMIDE WITH CAR-T CELLS” (CRISPR THERAPEUTICS AG, priority 2020, published 2022)

Tests used:
CD19+ Raji cells = experiment: Flow cytometry-based cytotoxicity assay of anti-CD19 CAR-T cells; type: cell-based; conditions: anti-CD19 CAR-T cells expanded with Lenalidomide, harvested day 6/7 and day 13/15, 24 hours, varying ratios, two studies
Experimental: CD19+ Raji cell line was used for the anti-CD19 CAR-T cells, a BCMA+ cell line was used for the anti-BCMA CAR-T cells, and a CD70+ cell line was used for the anti-CD70 CAR-T cells.
For anti-CD19 CAR-T cells, CD19+ Raji cells were labeled with eFluor670 and incubated with CAR-T cells at varying ratios. CAR-T cell cytotoxicity was analyzed at 24 hours by assessing labeled cells in the live gate compared to control sample.

anti-BCMA CAR-T cells [1] = experiment: anti-BCMA CAR-T cell expansion in mouse peripheral blood (human CD45+ staining, BD TruCount); type: in vivo, mice; conditions: co-administration of Lenalidomide, dose dependent, 2 & 3 weeks after CAR-T dosing
Experimental: Presence of human cells in mouse blood was evaluated using staining for human CD45+, and the number of human cells per ul of mouse blood was calculated using BD TruCount vials per manufacturer's protocol. Human T cells were quantified in mouse blood ˜1, 2 & 3 weeks after the CAR-T cells dosing to mice.

MM.1S subcutaneous tumor = MM.1S subcutaneous tumor model in mice; conditions: single arm treatment compared to no treatment arm; Lenalidomide 1.5 or 10 mg/kg; 3 million CAR-T cells
anti-CD19 CAR-T cells [2] = experiment: CD4 and CD8 ratio of anti-CD19 CAR-T cells
anti-CD70 CAR-T cells [3] = experiment: CD4 and CD8 ratio of anti-CD70 CAR-T cells; type: cell-based, human; conditions: day 8 and day 15, vs untreated anti-CD70 CAR-T cells
Text: Compared with untreated anti-CD70 CAR-T cells, Lenalidomide treatment didn't change CD4+% and CD8+% on day 8 and day 15. Similar to the anti-CD19 CAR-T cells, there was skewing of CD8+ cells at day 15, which was independent from the timing of CD70 electroporation and Lenalidomide treatment.

anti-CD19 CAR-T cells [4] = experiment: Editing efficiency of anti-CD19 CAR-T cells; type: cell-based, human
Text: (§1) TRAC-% was above 90% on Lenalidomide treatment or non-treated cells on both day 6/7 and day 13/15.

[5] = system: CAR-T cells expressing anti-CD70 CAR; experiment: Cell expansion and viability of CAR-T cells expressing anti-CD70 CAR; type: cell-based, human
anti-CD70 CAR-T cells [6] = experiment: Editing efficiency of anti-CD70 CAR-T cells (Process 1 and Process 2); type: cell-based, human
Experimental: as §1
FIGS. 5H-5K show the CAR+%, TRAC-%, B2M-% and CD70-%. CD70 electroporation was performed on the day 0 (T cell thawing day) for anti-CD70 CAR-T cell Process 1, but on day 1 (24 hr post activation) for anti-CD70 CAR-T cell Process 2. […] Lenalidomide decreased CD70-% on anti-CD70 CAR-T electroporated cells (Process 1) by about 7% but not on anti-CD70 CAR-T electroporated cells (process 2). CAR+% from anti-CD70 CAR-T cells (Process 2) was 88% on day 7 and 80% on day 14 (FIG. 5H). CAR+% from anti-CD70 CAR-T cells (Process 1) was 94% on day 7 and 82.5% on day 14. (FIG. 5H). TRAC-% of anti-CD70 CAR-T cells (from both processes) were around 97-98% on day 7 and 93%-98% on day 14 (FIG. 5I). B2M-% of the anti-CD70 CAR-T cells from Process 1 and Process 2 were around 80-83% on day 7 and 70%-85% on day 14 (FIG. 5J).

NK cells = experiment: Cytokine secretion after co-culture of NK cells with K562 cells; type: cell-based; conditions: co-culture with K562, Lenalidomide added
Experimental: Additionally, cytokine secretion was tested at the end of the co-culture described above, following co-culture of NK cells with B2M^neg T cells, K562 cells (a B2M^neg cell line, commonly used as a positive control for activation of NK cells due to lack of B2M expression), and unedited T cells (used as a negative control for NK cells activation).

[7] = system: CAR-T cells expressing anti-CD19 CAR; experiment: Cell expansion and viability of CAR-T cells expressing anti-CD19 CAR; type: cell-based, human
PBMCs (responder cells) = experiment: MLR assay (mixed lymphocyte reaction); type: cell-based; conditions: allo co-culture, donor 2, various Lenalidomide concentrations
Experimental: Next, allo-reactivity towards edited T cells (B2M^neg/TCR^neg) was tested using an MLR assay (mixed lymphocyte reaction). In this assay PBMCs (“responder cells”) were mixed with irradiated auto or allo T cells (“stimulator cells”). At the end of the assay, the activation of the responder cells was evaluated by measuring the cell proliferation in the co-culture, with cell proliferation serving as a proxy for immune activation. In the assay shown in FIG. 3C, both auto (donor 1) & allo (donor 2 & 3) were evaluated for immune activation following co-culture. […] As expected, immune activation was reduced upon deletion of B2M & TRAC from the T cells, as evident by the reduced proliferation in both donors tested.

anti-BCMA CAR-T cells [8] = experiment: In vitro expansion of anti-BCMA CAR-T cells in the presence or absence of Lenalidomide; type: cell-based, human; conditions: Lenalidomide 0.5 uM to 10 uM, in the tested time period
Experimental: Anti-BCMA CAR-T cells were used in this Example as exemplary CAR-T cell. The anti-BCMA CAR-T cells express an anti-BCMA CAR comprising the amino acid sequence of SEQ ID NO: 131, a disrupted TRAC gene having the anti-BCMA CAR coding sequence inserted, and a disrupted β2M gene.
The CAR-T cells were thawed and expanded in-vitro in the presence or absence of Lenalidomide. Multiple concentrations of Lenalidomide were added to the culture media, to evaluate the activity of Lenalidomide across a wide range of concentrations, from 0.5 uM to 10 uM.

anti-BCMA CAR-T cells [9] = experiment: CD4 and CD8 ratio of anti-BCMA CAR-T cells

Compound: Nc1cccc2c1CN(C1CCC(=O)NC1=O)C2=O (stereo not drawn) [Lenalidomide]
- killing capacities (percentage of cell lysis) (CD19+ Raji cells): comparable or higher killing capacities
- numbers / expansion of the CAR-T cells in mouse blood (anti-BCMA CAR-T cells [1]): significantly increase
- effect on tumor regression and mouse survival (MM.1S subcutaneous tumor): minimal effect
- skewing of CD8+ cells (anti-CD19 CAR-T cells [2]; day 6/7 and day 13, study #1): not significantly impacted
- increase of CD8+ cells (anti-CD19 CAR-T cells [2]; lenalidomide treated cells, day 15, study #2): 10%-14%
- CD4+% and CD8+% (anti-CD70 CAR-T cells [3]): didn't change
- effect on CAR+% (anti-CD19 CAR-T cells [4]; Lenalidomide treatment): did not significantly alter
- effect on B2M-% (anti-CD19 CAR-T cells [4]; lenalidomide treatment, day 6/7 and day 13/15): without significant changes
- cell expansion and viability [5]: enhance cell expansion and viability
- changes of TRAC-% and B2M-% (anti-CD70 CAR-T cells [6]; Lenalidomide's treatment): No significant changes
- decrease of CD70-% (anti-CD70 CAR-T cells [6]; anti-CD70 CAR-T electroporated cells (Process 1)): about 7%
- decrease of CD70-% (anti-CD70 CAR-T cells [6]; anti-CD70 CAR-T electroporated cells (process 2)): not
- cytokine secretion of NK cells (NK cells): Upregulation of secretion of several cytokines
- cell expansion and viability [7]: enhance cell expansion and viability
- allo reactivity (proliferation) towards unedited T cells (PBMCs (responder cells)): may in some cases enhance allo reactivity
- fold higher expansion of anti-BCMA CAR-T cells (anti-BCMA CAR-T cells [8]): 5-30 fold
- overall distribution of CD4 and CD8 cells (anti-BCMA CAR-T cells [9]; day 8): not significantly altered
- increase of CD8 positive cells (anti-BCMA CAR-T cells [9]; day 8, dose-dependent, vs Lenalidomide untreated cells): 7-15%
